{"source": "PubChem BioAssay AID504332", "about": "(National Center for Advancing Translational Sciences (NCATS), 2011)", "note": "Out of some 350,000 compounds screened, about 31,000 (8.9%) were called active. The shares of active, inactive and inconclusive entries below differ from those in the screen. Calls follow the shape of the dose curve; as a rule, active = well fitted inhibition curve with a large enough effect; inconclusive = small, poorly fitted or top-dose-only effect; inactive = no such curve, though single readings can be large or run the other way. A potency beside an inconclusive call is a rough fit, not a confirmed value. % is scaled to controls: 0 for no effect and ±100 for the full control effect; potency is read from the fitted curve at half-maximal effect; tags tell the direction and shape of the fitted curve.", "data": [{"target": "Histone-lysine N-methyltransferase EHMT2 (Homo sapiens) (UniProt Q96KQ7)", "sequence (Q96KQ7 whole entry, looked up)": "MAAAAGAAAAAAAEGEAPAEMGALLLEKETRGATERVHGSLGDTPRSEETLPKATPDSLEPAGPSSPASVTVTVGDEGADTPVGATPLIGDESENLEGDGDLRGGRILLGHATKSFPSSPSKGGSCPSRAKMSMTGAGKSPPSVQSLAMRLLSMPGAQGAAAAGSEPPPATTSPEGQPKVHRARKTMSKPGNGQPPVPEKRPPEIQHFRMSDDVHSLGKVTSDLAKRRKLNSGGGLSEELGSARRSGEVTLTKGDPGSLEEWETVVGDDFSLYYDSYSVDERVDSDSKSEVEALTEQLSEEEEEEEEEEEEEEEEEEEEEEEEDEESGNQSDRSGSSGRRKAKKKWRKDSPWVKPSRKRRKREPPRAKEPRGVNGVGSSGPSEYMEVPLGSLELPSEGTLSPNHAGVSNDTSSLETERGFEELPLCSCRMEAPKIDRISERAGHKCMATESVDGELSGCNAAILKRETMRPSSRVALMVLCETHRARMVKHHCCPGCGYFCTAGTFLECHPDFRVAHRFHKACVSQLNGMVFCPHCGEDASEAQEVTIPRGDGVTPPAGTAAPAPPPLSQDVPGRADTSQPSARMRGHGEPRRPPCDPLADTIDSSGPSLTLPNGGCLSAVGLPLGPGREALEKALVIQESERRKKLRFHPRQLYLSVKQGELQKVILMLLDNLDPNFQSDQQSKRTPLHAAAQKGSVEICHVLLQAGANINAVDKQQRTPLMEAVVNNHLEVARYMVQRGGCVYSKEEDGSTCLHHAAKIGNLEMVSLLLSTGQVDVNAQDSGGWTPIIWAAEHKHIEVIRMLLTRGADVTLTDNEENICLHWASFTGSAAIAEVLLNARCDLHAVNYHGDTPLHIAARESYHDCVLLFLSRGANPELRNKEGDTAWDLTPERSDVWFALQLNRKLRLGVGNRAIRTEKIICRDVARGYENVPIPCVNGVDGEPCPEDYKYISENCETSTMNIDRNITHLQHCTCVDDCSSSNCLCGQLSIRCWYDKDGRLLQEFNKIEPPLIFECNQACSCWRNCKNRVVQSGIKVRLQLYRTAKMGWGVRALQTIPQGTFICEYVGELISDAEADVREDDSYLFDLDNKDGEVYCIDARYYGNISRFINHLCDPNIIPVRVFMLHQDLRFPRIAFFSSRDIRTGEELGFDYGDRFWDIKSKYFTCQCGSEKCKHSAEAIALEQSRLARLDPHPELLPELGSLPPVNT", "assay": "qHTS Assay for Inhibitors of Histone Lysine Methyltransferase G9a; also: nearly all actives have a fitted effect of over 75% in size", "details": "G9a H3K9 monomethylation, AlphaScreen, 2 h; activity, negative = inhibition: at 59 µM (top of the series) unless noted", "procedure,_shortened": "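Methyltransferase reactions run at room temperature for 2 h (20 nM enzyme, 500 nM biotin-H3K9 peptide, 20 uM SAM) after a 15 min compound preincubation; product detected by AlphaScreen beads and anti-H3K9me1 antibody.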", "values": [{"smiles": "Cc1csc2nc(CCNS(=O)(=O)c3ccccc3)cn12", "Potency": "inactive"}, {"smiles": "CCn1nc(C)c(CNC(=O)CCc2nnc(-c3ccc(C(C)=O)s3)o2)c1C", "Potency": "inactive"}, {"smiles": "CCN(CC)c1ccc(/C=N/NC(=O)c2c(-c3ccccc3)noc2C)cc1", "Potency": "inconclusive: 89.1 µM [inhibitor, single point]"}, {"smiles": "CCc1nc(C)cn1S(=O)(=O)c1cc([N+](=O)[O-])ccc1Cl", "Potency": "inactive"}, {"smiles": "CCOC(=O)C1(Cc2ccccc2)CCN(Cc2cccn2-c2cccnc2)CC1", "Potency": "inconclusive: 44.7 µM [inhibitor, partial curve]"}, {"smiles": "Cc1ccn2c(=O)nc(SCC(=O)c3ccc(Cl)cc3)nc2c1", "Potency": "inconclusive: 39.8 µM [inhibitor, partial curve, poor fit]"}, {"smiles": "COc1ccc(OC)c(NC(=S)NN2CCN(C)CC2)c1", "Potency": "inconclusive: 44.7 µM [inhibitor, partial curve, poor fit]"}, {"smiles": "Oc1ccc(N2Cc3ccccc3C2)cc1", "Potency": "inconclusive: 1.41 µM [inhibitor, single point]"}, {"smiles": "Cc1ccc(NS(=O)(=O)c2cc(C(=O)NCCSc3ccc(C)cc3)ccc2C)cc1", "Potency": "inconclusive: 89.1 µM [inhibitor, single point]"}, {"smiles": "Cc1ccc(-c2nn(C)c(=O)c3ccccc23)cc1CO", "Potency": "inactive"}, {"smiles": "CCOC(=O)Cc1c(C)nc(Cc2ccc(OC(C)C)cc2)[nH]c1=O", "Potency": "inactive"}, {"smiles": "CN(C(=O)CSc1ncnc2sc3c(c12)CCC3)C1CCS(=O)(=O)C1", "note": "(configuration not stated)", "Potency": "inconclusive: 6.31 µM [inhibitor, single point]"}, {"smiles": "Cc1nc(C)c(C(=O)O)c(-c2ccsc2)c1C(=O)O", "Potency": "active: 50.1 µM"}, {"smiles": "COc1ccc(C(=O)CCN2CCCCCC2)cc1", "Potency": "active: 8.91 µM"}, {"smiles": "O=C1CC(c2ccco2)CC(O)=C1C=Nc1cc(Cl)ccc1O", "note": "(configuration not stated)", "Potency": "inconclusive: 79.4 µM [inhibitor, single point]"}, {"smiles": "CCN(C(=O)CSc1nnc(-c2ccco2)n1Cc1ccccc1)C1CCS(=O)(=O)C1", "note": "(configuration not stated)", "Potency": "inconclusive: 35.5 µM [inhibitor, single point]"}, {"smiles": "Cc1ccc(-c2cc(C(F)(F)F)nc(SCC(=O)c3cccc([N+](=O)[O-])c3)n2)cc1", "Potency": "inconclusive: 22.4 µM [inhibitor, partial curve, poor fit]"}, {"smiles": "COc1ccc(-c2nnc(SCC(=O)NCc3ccccc3)nc2-c2ccc(OC)c(OC)c2)cc1OC", "Potency": "inconclusive: 35.5 µM [inhibitor, single point]"}, {"smiles": "CCC(=O)N(C)CCc1cc2c(c(OC)c1/C=N/NC(=O)c1ccccc1O)OCO2", "Potency": "inconclusive: 39.8 µM [inhibitor, single point]"}, {"smiles": "O=C(CNC(=O)c1cccs1)Nc1ccc(N2CCOCC2)cc1", "Potency": "inactive"}, {"smiles": "Cc1c(C)n(Cc2ccccc2)c2ccc(C(=O)NCCN3CCOCC3)cc12", "Potency": "inconclusive: 44.7 µM [inhibitor, partial curve, poor fit]"}, {"smiles": "CCOc1cccc(CNCc2ccncc2)c1", "Potency": "inconclusive: 39.8 µM [inhibitor, single point]"}, {"smiles": "COc1cc(OC)cc(C(=O)NNC(=S)Nc2ccccc2OC)c1", "Potency": "active: 39.8 µM"}, {"smiles": "CC(C)Cc1nnc(NC(=O)c2cccc(S(=O)(=O)N3CCN(C)CC3)c2)s1", "Potency": "active: 39.8 µM"}, {"smiles": "O=C(CN1CCCC1)Nc1c2c(nc3ccccc13)N(Cc1ccccc1)CC2", "Potency": "inconclusive: 0.794 µM [inhibitor, partial curve, poor fit]"}, {"smiles": "Cn1c(SCc2cccc(F)c2)nnc1-c1ccccn1", "Potency": "inactive"}, {"smiles": "Cc1cccc(Cc2nnc(CCC(=O)NCc3ccncc3C)o2)c1", "Potency": "inactive"}, {"smiles": "Cc1ccccc1C(=O)N1CCc2c([nH]c3ccccc23)C1C(F)(F)F", "note": "(configuration not stated)", "Potency": "inconclusive: 39.8 µM [inhibitor, partial curve, poor fit]"}, {"smiles": "COc1cccc(NC(C(=O)Nc2cccc(C(C)=O)c2)c2ccccc2)c1", "note": "(configuration not stated)", "Potency": "inconclusive: 17.8 µM [inhibitor, single point]"}, {"smiles": "O=C(N/N=C/c1sc(N2CCCCC2)nc1-c1cccs1)C1CC1", "Potency": "active: 25.1 µM"}, {"smiles": "Cc1ccccc1C(=O)NCC(=O)OCC(=O)NC(C)C1CC2CCC1C2", "note": "(configuration not stated)", "Potency": "inactive"}, {"smiles": "O=C(CSc1ccccn1)Nc1ccc(N2CCOCC2)cc1", "Potency": "active: 31.6 µM"}, {"smiles": "CCn1c(SCC(=O)Nc2ccc(C)cc2)nc2sc3c(c2c1=O)CCN(C)C3", "Potency": "inconclusive: 79.4 µM [inhibitor, single point]"}, {"smiles": "COc1cccc(-n2c(SCC(=O)Nc3sc4c(c3C(N)=O)CCC4)nc3ccccc3c2=O)c1", "Potency": "inconclusive: 8.91 µM [inhibitor, single point]"}, {"smiles": "O=C(c1ccc(COc2ccc(F)cc2)o1)n1cccn1", "activity, negative = inhibition": "inconclusive: -59.1% [inhibitor] [at 0.0925 µM]"}, {"smiles": "Cc1cc(S(=O)(=O)NCCc2ccccc2)ccc1-n1cnnn1", "Potency": "inconclusive: 89.1 µM [inhibitor, partial curve, poor fit]"}, {"smiles": "COc1ccc(C2=NN(Cc3ccccc3)C3C(=O)NC(=O)C23)cc1", "note": "(configuration not stated)", "Potency": "inactive"}, {"smiles": "CSc1cccc(NC(=S)NC(=O)c2cccnc2)c1", "Potency": "inconclusive: 28.2 µM [inhibitor, single point]"}, {"smiles": "COc1ccc(CNC(=O)c2sc(=S)n(-c3ccc(OC)cc3)c2N)cc1", "Potency": "inconclusive: 2.51 µM [inhibitor, partial curve, poor fit]"}, {"smiles": "Cc1nc(NC(=O)CSc2ccccc2N)sc1C", "Potency": "inconclusive: 2.51 µM [inhibitor, partial curve, poor fit]"}, {"smiles": "CCCn1c(N)cc(=O)n(CCC)c1=O", "Potency": "inactive"}, {"smiles": "O=[N+]([O-])c1cc(S(=O)(=O)C(F)(F)F)ccc1Sc1nc2ccccc2[nH]1", "Potency": "inconclusive: 22.4 µM [inhibitor, single point]"}, {"smiles": "O=C(NC1CCCCC1)Sc1ccc(Cl)cc1", "activity, negative = inhibition": "inconclusive: -57.4% [inhibitor]"}, {"smiles": "Cc1ccc2c(c1)C(CCN)C(=O)N2Cc1ccccc1", "note": "(configuration not stated)", "Potency": "inconclusive: 39.8 µM [inhibitor, single point]"}, {"smiles": "O=C1CC(c2ccc(Cl)cc2)CC(=O)C1CS(=O)(=O)c1ccccc1", "note": "(configuration not stated)", "Potency": "active: 3.98 µM"}, {"smiles": "CCN(CC)S(=O)(=O)c1ccc(N2CCN(S(=O)(=O)c3ccccc3C#N)CC2)nc1", "Potency": "inconclusive: 28.2 µM [inhibitor, single point]"}, {"smiles": "CCC(Sc1nc(N)c(NC(=O)c2ccco2)c(=O)[nH]1)C(=O)O", "note": "(configuration not stated)", "Potency": "inconclusive: 50.1 µM [inhibitor, partial curve, poor fit]"}, {"smiles": "CC1CN(C(=O)c2cc(S(=O)(=O)N3CCCC3)c(Cl)cc2Cl)CC(C)O1", "note": "(configuration not stated)", "Potency": "inconclusive: 17.8 µM [inhibitor, partial curve, poor fit]"}, {"smiles": "Nc1nc(SCC(=O)c2ccc([N+](=O)[O-])cc2)n[nH]1", "Potency": "active: 7.94 µM"}, {"smiles": "Nc1nc(N)c(-c2ccccc2)s1", "Potency": "inconclusive: 2.51 µM [inhibitor, partial curve, poor fit]"}, {"smiles": "CCCc1n(CC)c2ccccc2[n+]1CC(O)COC1CCCCC1", "note": "(configuration not stated)", "Potency": "inconclusive: 39.8 µM [inhibitor, single point]"}, {"smiles": "O=C(Nc1ccc(NC(=S)NC(=O)c2cccs2)cc1)c1ccco1", "Potency": "active: 50.1 µM"}, {"smiles": "O=C(c1ccco1)N(CCCN1CCOCC1)c1nc(-c2ccc(F)cc2)cs1", "activity, negative = inhibition": "inconclusive: -78% [inhibitor]"}, {"smiles": "CC(C)CNc1ncnc2c1cnn2Cc1ccccc1Cl", "Potency": "inconclusive: 0.355 µM [inhibitor, full curve]"}, {"smiles": "O=C(Nc1ncnc2sc3c(c12)CCCC3)c1ccncc1", "Potency": "active: 44.7 µM"}, {"smiles": "O=C(O)Cc1ccc(C(=O)c2ccc(F)cc2)s1", "Potency": "inconclusive: 28.2 µM [inhibitor, single point]"}, {"smiles": "COc1ccccc1CNS(=O)(=O)CCNC(=O)c1ccccc1", "Potency": "inconclusive: 100 µM [inhibitor, partial curve, poor fit]"}, {"smiles": "O=C(CSc1ccccc1C(=O)O)NC1CCCCCC1", "Potency": "inactive"}, {"smiles": "CC1(C)CC(=O)C=C(Nc2ccc(O)c(C(=O)O)c2)C1", "Potency": "active: 44.7 µM"}, {"smiles": "Cc1cc2nnc(SCC(=O)NCc3cccs3)n2c2ccccc12", "Potency": "inconclusive: 35.5 µM [inhibitor, single point]"}, {"smiles": "O=C(CSc1nc2ccc(Cl)cc2[nH]1)NCCc1ccc(Cl)cc1", "Potency": "inconclusive: 39.8 µM [inhibitor, single point]"}, {"smiles": "CC(NC(=O)c1ccccc1Cl)C1CC2CCC1C2", "note": "(configuration not stated)", "Potency": "inactive"}, {"smiles": "CC1(NC(=O)c2cccc(S(=O)(=O)N3CCCc4ccccc43)c2)CCS(=O)(=O)C1", "note": "(configuration not stated)", "Potency": "inconclusive: 50.1 µM [inhibitor, partial curve, poor fit]"}, {"smiles": "Cc1cccc(CN2CCCC(C(=O)N3CCCCC3)C2)c1", "note": "(configuration not stated)", "Potency": "active: 25.1 µM"}, {"smiles": "CC1CCCCC1NC(=O)CCS(=O)(=O)c1cccc2nonc12", "note": "(configuration not stated)", "Potency": "inconclusive: 0.355 µM [inhibitor, full curve, poor fit]"}, {"smiles": "Cc1ccc(S(=O)(=O)NCC(=O)OCc2csc(-c3ccccc3)n2)cc1", "Potency": "inconclusive: 2 µM [inhibitor, full curve]"}, {"smiles": "Cc1cc(C(C)(C)C)cc(C)c1S(=O)(=O)N1CC(=O)Nc2ccccc21", "activity, negative = inhibition": "inconclusive: -57.5% [inhibitor]"}, {"smiles": "c1ccc(CSc2nnc(-c3ccco3)n2Cc2ccccc2)cc1", "activity, negative = inhibition": "inconclusive: -68.8% [inhibitor]"}, {"smiles": "Cc1cccc(NC(=S)NNC(=O)c2csc(C(C)C)c2)c1", "Potency": "inconclusive: 8.91 µM [inhibitor, partial curve, poor fit]"}, {"smiles": "O=C(O)CCNc1cc(N2CCN(C(=O)c3ccco3)CC2)c2noc3c2c1C(=O)c1ccccc1-3", "Potency": "active: 10 µM"}, {"smiles": "CCCCCCCCCC[n+]1cccc2c3ccccc3ccc21", "Potency": "inconclusive: 39.8 µM [inhibitor, single point]"}, {"smiles": "Cc1ccc(NC(=O)Cn2cccc2)cc1", "Potency": "inconclusive: 56.2 µM [inhibitor, partial curve]"}]}]}
